Results on 125 sequences are retold here after the supplement of paper PMC10681739.

The full ranking holds about 4,100 sequences; the median of “arbitrary fluorescence units” is about 780, and the highest 2% start at about 22,000. The list shows a part of the results.

The test concerns the target T1, ETS1 (UniProt P14921).
T1 sequence: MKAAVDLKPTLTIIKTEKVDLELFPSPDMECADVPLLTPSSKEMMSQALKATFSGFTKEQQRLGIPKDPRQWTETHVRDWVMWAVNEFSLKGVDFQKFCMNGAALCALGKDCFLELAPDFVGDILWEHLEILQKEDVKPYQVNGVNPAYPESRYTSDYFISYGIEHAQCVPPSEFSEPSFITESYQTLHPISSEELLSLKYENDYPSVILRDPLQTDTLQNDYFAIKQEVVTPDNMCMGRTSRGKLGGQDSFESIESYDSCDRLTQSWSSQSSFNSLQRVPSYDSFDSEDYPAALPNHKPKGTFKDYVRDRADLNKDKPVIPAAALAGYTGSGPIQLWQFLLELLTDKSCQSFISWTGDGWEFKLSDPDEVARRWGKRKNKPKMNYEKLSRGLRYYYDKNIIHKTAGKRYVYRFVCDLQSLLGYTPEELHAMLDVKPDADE
The test can be described thus: ETS1 binding intensity (PBM fluorescence), ETS1 alone (arbitrary fluorescence units); higher = stronger binding. The note with it: ETS1 concentration 1 nM; RUNX1 concentration 0 nM. How it is done: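 gcPBM on 36-bp genomic-derived probes (partner site mutated) containing one ETS1 site and no RUNX1 site. Recombinant human ETS1 (1 nM) was incubated alone or with RUNX1 (25 nM) and detected by anti-ETS1 antibody fluorescence. Values are medians over 4 replicate spots (not normalised). The probes sit in constant array flanks that are not printed.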
In turn, TAGGCAGGCAGGATGTGCCTATAAGCTACATGAATG came in with an ETS1 binding intensity of 2460.
GGGCGGGTCAGCGGAAGTGAGGGCGGGTGAGGCTGG yielded an ETS1 binding intensity of 6120.
As for CAGCTTCCGGGCTAATTAGCAGTCACGGTGTGCCGC, the ETS1 binding intensity was 19800.
Then TGTATAACATCCTCATGTTCTGAGGGTGAGTTGAGC, with 2030.
Then CACCGGAAAAGGCAAGCGCGGCCGCGCGCTTGGCGC, with 3740; and GCCCTCACCGAAGTTCCTGCCCAACGACATCCGGGT, with 2390; and CTTGTGCAGCTGCTGTTCTCAGCATCCGCGGGCGGA, with 331.
As for ATCAAAGAACGGATATTGCTGTGACACCGAGGGGAC, the figure is 1980; as for CCATCCAGGAAGCTTATGGTGCAACAGCAGTGTGCC, 1190.
ACACCCCAGGAAGTGGCAGAGACTACAACAAGTCAG registered an ETS1 binding intensity of 2890.
Then GCCAGGGCAGGAAGTTGCTAAGCGCCCCAGAGCAGG, with 4990; and GAAATCACATCCTTTTGCAAAATCACAGGTGTTTTG, with 4830.
Regarding TTGAGGGTTTTATAGCTTAACTTTTGCTTCCTGTGT, the ETS1 binding intensity is 597.
As for CCATCCAGGAAGCTTATGGTGCGACTGCAGTGTGCC, the figure is 987; as for TGTGTCACTTCCCTATCTGTTTCGGTTGTTCACTCC, 1690.
As for CATGCCCGTCCGAGCGCGCTGCTTCCGCCTTGCAGC, the figure is 1420; as for AGGTGCTTTGGCCTTTTTGTCCGGCAGGATGTGATA, 538; as for GCTGGGGCCCAGCCCGAGCCAGGCCTTCCTCCCCTC, 288.
In turn, AGGTTGTAGTCGGTGACCTCCCAGTTCAGGAAGTCC had an ETS1 binding intensity of 450.
Then CGCCCGAGCGCGTCACGTGTTCGTCAATTTCCTTCA, with 369.
Then GTCGGTTTTTCTCTGGCTAGCGGATGTTTGGCACCA, with 809; and TCTCCTTTCAGGAAGCTGCACCCAAAGCACCCTCAG, with 680.
Then ACAAGCCATTTCCCATTCTTGGGGCTGTAGAGGGGA, with 1110; and ACAGGAAGGAACTTGCTCAGGGCCACACCTCAGAGT, with 375.
For TCTGGGACAGGAAAGACTTGTCGTTACTGCTGTTGA, the ETS1 binding intensity stood at 838.
Then TCCGTGAGGTGCAGCAGGTCGGTAGGCGGGAAATGG, with 378.
AGTCAGGATGGCAACAGCGATCCCCGGCAACCCCAA displayed an ETS1 binding intensity of 384.
For the sequence TAAAGCGGAAGGGGCCGGCTCAGCGGCCTGGCCGCT, the ETS1 binding intensity was 1600.
As for GCGCGGACTCCGGGAAGCTGAGCGGCAAAGACCGTG, the figure is 359.
As for TCCACGGTAGCCGCGTTCGCCGGAAGGCCGCGACCC, the figure is 396; as for TACAGCACCGTATATGGCTGAGGGAGGAGGAAGGGA, 342; as for CGGGAGGGGCAGGAAGCGGACTGGGGTGGGGAAGGG, 2510.
Then AGATTCTAGGAAGTGTCTGTAGGCGCAGCTGAGGGT, with 484; and AAGCTGGGTGTGCTCTCCTGGGCAGGAAGCCACCAA, with 467; and TGGCGCTGCAGGCCGGGCGGGGGCCGCGGAAGCTGC, with 356.
TTTCCAGAGGATGTAGCTTCAGCGGGAGAGCTTCAA gave an ETS1 binding intensity of 659.
Then CAGCTGACAGGAAGGAGAGAACGACAGACAGTGCGA, with 2260.
Then GCTAAAGGAAGCTCTGTACAGCTGTCGTAAGGTGGC, with 591.
As for CGTACGCGCACTTCCGGTCTTTGTGACTTGCAGCTC, the figure is 38700; as for TAGGCGGAAAGCCCGCTAGCCTAAATCACAGAGGGT, 355.
Sequence AAAGCCAACTACCAACCGAGAGCGGAAGTCGGGGAC yielded an ETS1 binding intensity of 2530.
As for GTAGCAACAGCAGGCTCACACACCGGAAGTGCTCGC, the figure is 9380; as for GTGCTAAGTGAGGAAGTGCAGTTTACAGCACGGTGG, 694; as for ATGGGATTCCCGCTGGTTGCACCGAAGGAAGCAAGG, 308.
As for GCTCCCCTCAGCCAGCAGAGAAGGCGGAAGCAGTGG, the figure is 436.
As for CCTGAGCGCCCGGAAGGAAGGCTGGGGTAGGTTGTC, the ETS1 binding intensity was determined as 756.
For CTCAGACCCTCAGTGAGGTCTGACGTCATTTCCTGC, the ETS1 binding intensity turned out to be 734.
Then GGAACACTGGGGTCGGGGCGAGGAAGCTGCCGGGGA, with 388.
As for CAGGCTGCTGTGCCTACTGCAGCACTTCCTCCCGCT, the figure is 720; as for CCTCACTAACATCCTGTTGAGGTGTCCCACTATCCA, 14800; as for CTAAGCAGAGGCCGGAAGCGGTGGTCTTTAGCGGCT, 6000.
As for CTGGGCAGGAAAGGACCTGGCCTCCCAGCCCTCAGG, the figure is 426; as for CCTCAATTTCCTGGCCAGAGAATCCACTGCCTCTCA, 5570.
CTTGGGGCTCCTTTCCACCCGCCCCGGAAGCCGGCC showed an ETS1 binding intensity of 476.
Then AGCGGCGTCTTCGGGGTCCTTCCTGGCGGCGGGCGC, with 392; and ATCTGCAACCTCGGAGGCTGCCGCGGGCTTCCTGTC, with 658.
As for AGCTGCATTTCCGGGCAGGCAATGAAACTACAGAGT, the figure is 18900; as for GTGTTGTCAAAGTAAAAGCTCAGTGTTTCCGTGTTC, 618.
Then ATGACTCATTTCCTCACTCTCTACTCCCACCGAACC, with 2490.
In the case of CCATCGGAAGTTTTGGGTTTTGCGCTCACAGCCGCC, the ETS1 binding intensity was 512.
Then TGCACGTGGGAGATAAGCAGAGGATCCGGCTGGGGT, with 397; and TGTTCAGGAACAGGAAATGAAACCCCGCCGCTTTGA, with 6100.
As for TGGCTGTCACTTCCTGTCCCACTGTCGTTCCTGGGA, the figure is 20600.
Then CCCACCCGGCCTACAAAAAGCGGAACACCGAGCTCG, with 473; and CGTCCCTGAGGAAGCTGCTGCAGCTTTCTGGGCTAG, with 409.
For CAGAGAGCGGACTTCCGCGACGCGGCTAAGCCGGGC, the ETS1 binding intensity is 3170.
Then GCGCCAAGCGCGCGGCCGCGCTTGCCTTTTCCGGTG, with 697; and CTCGGAGCGGAACTACTAGGGTGCTTTCTCCTGAGG, with 550.
As for AGCTGGCTGTGCTCAGGGTGGAAACAGGAAGAGAAA, the figure is 476; as for GCGCGATCTGGGGGTCCCCGGCGCATATCCGGGTCT, 669.
Then TACCTACATCCTGCCACCACCCGAGGGGACCCCAAG, with 13200.
AGCGCTTCCTTGCCGAGAGGCTGGAGCTTCGGCACC had an ETS1 binding intensity of 2190.
As for CATGAACACCAACAAGCCTGGTTTCCTCTGCGCAGC, the figure is 537.
Then TCTCTACTTCCCATTATTTCTGTCGTTAATTTCACC, with 2080; and TGAATATTCTTCCGCACGTACGCACATGGCTCACTT, with 1010; and CCCGCTCCTACGGCGCAAGCCCGCCTTCCTGAAGAA, with 352.
GGTCCGTGGCCCTGGGCACCTCCATCCGCCGCGGCG had an ETS1 binding intensity of 368.
As for CTCGGCGCGACGGATATTCCCGTGATCGCCGGGTTC, the figure is 490; as for AGGCCTGGCCCCCGGACGTGGGCGGCTGCCGGGGCG, 409.
As for GCCCAGGAAGTGGGTACAAAATGAGCTACAAGACCT, the figure is 2970; as for GCTGCCGGAAAAGGCGCCGAGGTAGCCGCCTCACTT, 1380; as for GGCGCCGCGGAAATCTGTACACACCCCAGCGCGGCC, 354.
As for AATGCTGTAGTTTCAGCCACAGCATCCGGCGAAGGT, the figure is 2040.
The sequence CTGCACAGGGAAGTGAGTGTCGAGCTCACTGCACCG registered an ETS1 binding intensity of 419.
Then TTGGTGACCTCTTCCTGTCCGCTGGGGTGTTGTTAC, with 3680.
As for TATATGCACAGGAAGTCCCTTACAACCTACTCTGTT, the figure is 3590.
On to CCGCCTTTCCGGAGCGCGGGCGCGCCGTGGCGGGAG, for which the ETS1 binding intensity is 2820.
Then CACTGCATTGTTGGAACGCGGAGCGGAAGCGAAGGG, with 906.
Then CTCGGGGACCTCACCCTGCGCGCCGGGAGGAAGGGC, with 369; and TCCTGTAGCTTAGCTGGGAGAACAGGATGACAGCAA, with 438.
As for GTGAGGTTTGTAGTTGGAATCCACTTCCTCTGGTTT, the figure is 814.
As to AGCACAGCGGCCAGGACTACACATCCCAGCATGCAA, the ETS1 binding intensity came to 338.
Sequence ACAGAGCAGGAAGCAGCCCTCACCTCAGATGAAGCA showed an ETS1 binding intensity of 2360.
Then CGTCCCCGAAAAGCCGCGGCAGAAACTTCCGGCGGT, with 3130.
Sequence AACAACCCAAAAGCCAACTCGGCGGAAGGCCTTGGC returned an ETS1 binding intensity of 341.
For the sequence GCAGGAAATGACGTCAGACCTCACTGAGGGTCTGAG, the ETS1 binding intensity is 2130.
Then GTAGCCGGGTGTTCCGGAGCGCTGCAGGCAAAGCAG, with 497; and AGGAGGGGGAAAGCACCAAAGCCAGGAAGTTACACA, with 1200; and CCAAGAGCACAGCTCCAAGAGACCTTCCTGTTTATT, with 548.
The sequence AACCTCTAAGGAAGCGGTGTGTGCACCCTCATGCTG came in with an ETS1 binding intensity of 389.
GGCCCCTGCTTCCGGGTGTGACGCGAACCTCGGGCA gave an ETS1 binding intensity of 12400.
Then CCCTTTTTCCCCCCAAACAGCTTCCTCTGCTAAGAA, with 808; and GTTTTGTGACTTTTTAAGCATGACATACAGGATATT, with 550.
Then TTGAAGCTCTCCCGCTGAAGCTACATCCTCTGGAAA, with 637.
For the sequence GTAAAAGGAAGTAAAGGCTTGGCCGGGCGCGTTGGC, the ETS1 binding intensity amounted to 1230.
As for GAAGCTTCGGTGAAGTCTGAAGTTTCCTGGGCCGGG, the figure is 380.
Then CGCCCACCACTTCCTGCTGGCGCTCGGCAAGCGTTG, with 16900; and GTAGCCACGGCGGCCGCCACGCCCCGTTTCCTGGTC, with 481; and GGAGGAAGGCAGGAAAGAAAGAGGTGGATTCGGCAC, with 543.
GACCTCTTTTCCTGTACTAGCAACTCCCCGCTGCAG: the ETS1 binding intensity amounted to 3720.
As for GACCTTCAGCGCTGGGTCCCGGAACTGGGTTTTAGG, the figure is 367; as for CATTTTGTCGGCGCAGCCACCTTCCTGGAGAGCCCG, 1010; as for ACTTGACTTCCTGTGGGGTGTCTGGTGTCTGCACTT, 11700.
As for TGCAACGCGCTTGCGCGGACGGCTTCCTGTGTTTTC, the figure is 979; as for GTGAAGACCCCAAGTTGGGGCAGATGGCTTCCGACT, 343; as for TCTTCAGGCGTCTTTCCGGTGGTGGGCGTTTTTGCT, 3750.
Then GCCGCTGAAAGCCCTCAACCAGCGGAACGCAGGCGA, with 314; and ACGTAGACAGGAAAGTAATGTTGTTCAGGACTGAGT, with 526.
GAGGGTGAGCGGCCAAGAGACCTCCAGGAAGAGCGG had an ETS1 binding intensity of 345.
Then GCGGAGCTTGTAGGCCAGGAGGACTTCCGGGTGGGT, with 2220; and CCAGCCGCTTCACCACCCCTCAGCGACTTCCGCTTC, with 1710.
CTCCTGCTGTTGCCAGGCAACCGGCCCCGGAAGTTG displayed an ETS1 binding intensity of 676.
As for CAAAACATGAACCCCAAACCCCAGCTTCCTCTTGCA, the figure is 496; as for CAGACAGGATGACAGCTGGCTGGCCTGCAGCACCTC, 684.
On to TAAATGCTCACCCCAACCTGCTTCCTTTTCTACCAG, for which the ETS1 binding intensity stood at 575.
